Experimental findings from PMC4336329 (PLoS ONE, 2015) are described below.

In all, about 310,000 compounds went through this assay and about 14,000 (4.5%) showed an effect of 50% or more. Effects have a minus sign here. The list shows a part of the results.
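Note: peak tail current of the secondary pulse compared with the same well before compound.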

For this experiment, the target named is human ether-à-go-go-related gene (hERG) potassium channel (human, UniProt Q12809). The experiment in a line: primary screen, population patch clamp on CHO cells stably expressing hERG.
Chain of human ether-à-go-go-related gene (hERG) potassium channel (Q12809 whole entry, looked up): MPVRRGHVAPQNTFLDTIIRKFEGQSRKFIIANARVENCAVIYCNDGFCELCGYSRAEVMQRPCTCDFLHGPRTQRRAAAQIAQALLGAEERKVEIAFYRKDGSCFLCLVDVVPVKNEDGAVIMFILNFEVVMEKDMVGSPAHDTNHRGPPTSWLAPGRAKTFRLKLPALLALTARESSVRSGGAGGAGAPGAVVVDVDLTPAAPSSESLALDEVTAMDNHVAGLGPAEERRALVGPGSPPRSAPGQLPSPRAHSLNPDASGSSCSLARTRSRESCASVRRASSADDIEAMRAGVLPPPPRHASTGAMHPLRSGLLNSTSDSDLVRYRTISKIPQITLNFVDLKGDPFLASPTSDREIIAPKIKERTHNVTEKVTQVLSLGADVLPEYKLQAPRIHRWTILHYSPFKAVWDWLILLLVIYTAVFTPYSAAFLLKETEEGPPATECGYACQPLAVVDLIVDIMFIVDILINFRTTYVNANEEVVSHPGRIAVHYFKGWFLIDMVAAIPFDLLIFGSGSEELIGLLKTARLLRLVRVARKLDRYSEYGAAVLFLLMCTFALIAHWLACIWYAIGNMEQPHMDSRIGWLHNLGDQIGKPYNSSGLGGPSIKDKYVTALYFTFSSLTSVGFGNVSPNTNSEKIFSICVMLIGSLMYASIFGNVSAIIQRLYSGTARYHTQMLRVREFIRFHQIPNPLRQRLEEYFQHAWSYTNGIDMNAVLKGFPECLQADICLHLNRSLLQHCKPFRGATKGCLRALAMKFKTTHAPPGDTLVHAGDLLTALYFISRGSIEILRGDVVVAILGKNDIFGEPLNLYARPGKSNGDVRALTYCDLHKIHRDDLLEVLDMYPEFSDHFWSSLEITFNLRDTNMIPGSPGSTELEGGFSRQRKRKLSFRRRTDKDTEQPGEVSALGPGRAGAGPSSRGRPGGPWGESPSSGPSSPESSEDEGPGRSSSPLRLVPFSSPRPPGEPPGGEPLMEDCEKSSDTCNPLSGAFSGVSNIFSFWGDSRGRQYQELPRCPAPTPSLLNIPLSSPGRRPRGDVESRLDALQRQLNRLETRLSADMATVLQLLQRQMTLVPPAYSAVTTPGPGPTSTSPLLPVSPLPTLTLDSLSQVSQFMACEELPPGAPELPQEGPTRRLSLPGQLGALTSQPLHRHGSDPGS
Take `O=c1c2[nH]c3ccccc3c2ncn1CCN1CCNCC1`: the “hERG current change (%, negative = inhibition) at 10uM” value amounted to 4.97%.
Regarding `Cc1nn2c(N3CCOCC3)c3c(nc2c1-c1ccccc1)CCCC3`, the “hERG current change (%, negative = inhibition) at 10uM” value is -14.8%.
Under `O=C(N/N=C/c1cccnc1)c1cccc(F)c1` stands 2.67%.
Under `CC(=O)c1c(C)[nH]c(C(=O)Nc2ccc(C)c(S(=O)(=O)Nc3ccc(C)cc3C)c2)c1C` stands -10.9%; under `CNC(=O)N(O)C1N(/N=C/c2ccc(C)cc2)C(=S)SC1(C)C` (stereo not drawn), 24.5%.
Under `CC(NC(=O)c1cnccn1)c1ccc(S(N)(=O)=O)cc1` (stereo not drawn) stands -2.33%; under `Cc1ccc(CN2CCN(/N=C/c3ccc(N(C)C)cc3)CC2)cc1`, 10.1%.
`COc1ccc(C)cc1S(=O)(=O)N1CCCC(N2CCOCC2)C1` (stereo not drawn): the “hERG current change (%, negative = inhibition) at 10uM” value is given as 13.4%.
Under `CCc1ccc(CCC(=O)Nc2ncc(Cc3ccccc3Cl)s2)o1` stands 8.75%.
`CCOc1ccc(C)cc1S(=O)(=O)Nc1cccnc1`: the “hERG current change (%, negative = inhibition) at 10uM” value was 14.2%.
Under `COc1ccc(C(=O)OCC[N+]2(C)CCCCC2)cc1.[I-]` stands 10.4%; under `O=C1Nc2c(c(=O)[nH]c(=O)n2-c2ccccc2)C1(Nc1ncccn1)C(F)(F)F` (stereo not drawn), 11%.
Under `COc1cc(N/N=C(\C)c2ccc(O)c(C)c2)nc(-c2ccccc2)n1` stands -5.76%.
Under `CC(C)c1ccc(NC(=O)CSc2n[nH]c(=O)n2Cc2ccco2)cc1` stands -28.7%.
As for `[O-]/C(=C(\C(=S)Nc1ccccc1F)[n+]1ccccc1)c1ccc(OC(F)F)cc1`, the “hERG current change (%, negative = inhibition) at 10uM” value turned out to be 1.92%.
Turning to `COC(=O)C(NS(=O)(=O)c1ccc(C)cc1)c1ccccc1` (stereo not drawn), the “hERG current change (%, negative = inhibition) at 10uM” value was found to be 1%.
With `CC(C)c1nccn1S(=O)(=O)c1cc([N+](=O)[O-])ccc1Cl`, the “hERG current change (%, negative = inhibition) at 10uM” value is recorded as 9.72%.
Under `CC(C)Oc1ccc(/C=N/NC(=O)C(CSCc2ccccc2)NC(=O)c2ccc([N+](=O)[O-])cc2)cc1` (stereo not drawn) stands 8.54%; under `CC(C)N1C[C@@]23C=C[C@@H](O2)C(C(=O)OCc2ccccc2)[C@H]3C1=O` (stereo partly drawn), 9.24%; under `C=CCn1c(COc2ccc(F)cc2)nnc1SCC(=O)c1c[nH]c2c(CC)cccc12`, 7.05%.
Under `Cc1cc(C)c(NC(=O)NC(=O)c2ccc(F)cc2)c(C)n1` stands -0.738%.
Under `FC(F)(F)c1ccc(CSc2nccn2-c2ccccc2)cc1` stands 0.885%; under `CC(C(=O)NCc1ccc2c(c1)OCO2)c1ccc([N+](=O)[O-])cc1` (stereo not drawn), -13.6%; under `O=C(CNC(=O)c1ccco1)Nc1ccncc1`, -5.14%.
Consider `Cc1occc1C(=O)Nc1sccc1C(N)=O`, for which the “hERG current change (%, negative = inhibition) at 10uM” value turned out to be 3.55%.
Under `O=C1OC2(O)C3C4C=CC(C4)C3C(=O)N2c2ccccc21` (stereo not drawn) stands 16.1%; under `CCC(C)[C@H]1CNCCN1CCc1cccc(F)c1` (stereo partly drawn), 4.5%.
For `CCCNC(=O)Cn1cnc2sc(C(=O)N3CCN(CCC)CC3)c(C)c2c1=O`, the “hERG current change (%, negative = inhibition) at 10uM” value turned out to be 2.73%.
Under `Cc1cccc(N(C(=O)CCC(=O)Nc2ccccn2)C(C(=O)NC(C)C)c2ccc(O)cc2)c1` (stereo not drawn) stands 11.1%.
Under `CCOC(=O)c1ccc(NC(=O)COc2cc(=O)n(CC)c3ccccc23)cc1` stands 11.1%; under `Cc1ccccc1-n1nc(C(=O)O)c(C)c(C#N)c1=O`, 9.37%.
Under `COc1cc(C(=O)Nc2ccccc2C(=O)NCc2cccnc2)cc(OC)c1OC` stands -0.227%; under `COc1ccc(Cc2nnc3c4cnn(C)c4ncn23)cc1`, -5.22%.
Take `Cc1cc(C)c2c(CC(=O)N3CCCC3)coc2c1`: the “hERG current change (%, negative = inhibition) at 10uM” value was 12.9%.
Under `O=C(O)/C(=C\c1ccc(-c2ccccc2[N+](=O)[O-])o1)c1ccccc1` stands 23.6%.
As to `Cc1ccc2c(C)c(C(=O)N(C)C(C)c3ccncn3)oc2c1C` (stereo not drawn), the “hERG current change (%, negative = inhibition) at 10uM” value is listed as -9.41%.
Under `Fc1ccc(CNc2cnccn2)cc1` stands 12.1%.
Under `CC1(C)CC2CC(C)(CN2C(=O)COC(=O)c2n[nH]c(=O)c3ccccc23)C1` (stereo not drawn) stands -19.9%.
Under `N#CC1=C(SCc2ccccc2)NC(=O)CC1c1ccccc1` (stereo not drawn) stands -8.81%.
Regarding `C=CCn1c(=O)c2ccccc2n2nnc(C(=O)OCC)c12`, the “hERG current change (%, negative = inhibition) at 10uM” value is 1.77%.
Under `Cc1ccc(CNC(=O)Cn2cnc(S(=O)(=O)N3CCC(C)CC3)c2)o1` stands -62.1%.
As for `COc1ccc(OCCNc2cc(Cl)ccc2[N+](=O)[O-])cc1`, the “hERG current change (%, negative = inhibition) at 10uM” value was found to be 9.2%.
Under `O=C(CN1C(=O)NC2(CCOc3ccccc32)C1=O)c1ccc(Br)cc1` (stereo not drawn) stands -19.5%; under `O=C(CCN1C(=O)/C(=C/c2ccccc2F)SC1=S)Nc1ccccn1`, -4.2%.
For `O=C(C1COc2ccccc2O1)N1CCN(c2ccc(F)cc2)CC1` (stereo not drawn), the “hERG current change (%, negative = inhibition) at 10uM” value is -40.7%.
Under `Cc1cc2cc(CNC(=O)c3ccc(S(=O)(=O)N(C)C)cc3)ccc2n1C` stands 4.48%; under `CC(C)C(=O)Nc1nc2cc3c(cc2s1)OCO3`, -10.4%; under `COc1cccc(NC(=O)NCCN2CCCCC2)c1`, -13.7%.
As for `CC(C)CCNc1nc2c(c(=O)[nH]c(=O)n2C)n1CC(O)COC(C)C` (stereo not drawn), the “hERG current change (%, negative = inhibition) at 10uM” value is listed as -7.08%.
For `CC(C)CC(=O)OCc1cn(-c2ccccc2)nn1`, the “hERG current change (%, negative = inhibition) at 10uM” value was -11.1%.
For the molecule `Cc1cc(C)c[n+](CC(=O)c2c(C)cc(C)c([N+](=O)[O-])c2C)c1.[Br-]`, the “hERG current change (%, negative = inhibition) at 10uM” value was -68.6%.
Under `COc1cc2[nH]c(=O)n(CCC(=O)N3CCN(c4cc(Cl)ccc4C)CC3)c(=O)c2cc1OC` stands 0.821%; under `O=C(O)CCCN=C1NC2(CCCC2)Cc2ccccc21`, -39.6%.
Take `CC1CCC(NC(=O)CCN2C(=O)C3C4C=CC(C4)C3C2=O)CC1` (stereo not drawn): the “hERG current change (%, negative = inhibition) at 10uM” value is 5.98%.
As for `CCNC(=S)NS(=O)(=O)c1ccc(F)cc1`, the “hERG current change (%, negative = inhibition) at 10uM” value is on record as 17.3%.
Under `Cn1ccnc1SCCNC(=O)CCc1nnc(CCc2ccccc2)o1` stands -10.2%; under `O=C(CN1CCN(S(=O)(=O)c2cc(Cl)ccc2Cl)CC1)Nc1ccc2c(c1)OCCO2`, -23.2%; under `COC(=O)c1cnn(-c2nc(-c3ccccc3)cs2)c1N`, 12.7%.
Under `Cc1nc(N2CCCCC2)c2sc(=S)n(C)c2n1` stands 0.582%; under `CCOC(=O)C1CCCN(C(=O)c2ccc(CS(=O)(=O)c3ccc(C)cc3)o2)C1` (stereo not drawn), -20.4%.
Under `Fc1cccc(F)c1/C=C/c1ccc2ccccc2n1` stands -7.93%; under `CCCc1cc2c(cc1NC(=O)c1ccc(Br)cc1)OCO2`, -4.12%.
In the case of `Cc1cc(C)c(NC(=O)CSc2nc3c(c(=O)n2C)SC(C)C3)c(C)c1` (stereo not drawn), the “hERG current change (%, negative = inhibition) at 10uM” value came to 6.58%.
Under `O=C(CN1C(=O)COc2ccccc21)NCCCN1CCc2ccccc2C1` stands -32%.
For the molecule `COc1ccc(C(=O)C2CCCN(C(=O)CCC3=NNC(=O)CC3)C2)c(C)c1` (stereo not drawn), the “hERG current change (%, negative = inhibition) at 10uM” value was -4.27%.
Under `COc1ccccc1-n1c(N)cc(=O)nc1SCC(=O)Nc1cc(C)on1` stands 7.39%; under `CCc1c(C)nc2ncnn2c1N1CCC(C(=O)Nc2ccccc2)CC1`, -44.4%; under `Fc1ccc(-c2n[nH]c(=S)n2Cc2ccccc2)cc1`, 7.48%.
On to `COc1ccc(Nc2ncnc3c2oc2ccccc23)cc1`, for which the “hERG current change (%, negative = inhibition) at 10uM” value was -6.03%.
Under `O=C(CCCCCNC(=O)c1ccccc1)N/N=C/c1ccco1` stands 1.16%.
Under `O=C(c1ccc(S(=O)(=O)N2CCCCC2)cc1)N(c1ccccn1)C1CCCCC1` stands -5%; under `COc1ccccc1CCNC(C)CCc1ccc(O)cc1` (stereo not drawn), -52.5%.
Under `CC(=O)Nc1ccc(OCc2cccc([N+](=O)[O-])c2)cc1` stands 8.84%.
For `CCOC(=O)c1cnc2ccc(C)cc2c1Sc1ccccc1`, the “hERG current change (%, negative = inhibition) at 10uM” value is given as -4.19%.
Under `Cc1cnc(CNC(=O)c2ccc3oc(Cc4ccc(Cl)cc4)nc3c2)cn1` stands -15.7%.
Under `Cc1onc(C(=O)NCc2cccs2)c1[N+](=O)[O-]` stands 9.7%; under `Cn1c(=O)c2c(ncn2CC(=O)Nc2nnc(Cc3ccccc3)s2)n(C)c1=O`, 10.6%; under `O=C1c2cnc3ncnn3c2CC2c3ccccc3CCN12` (stereo not drawn), -29.6%.
For the molecule `Cc1ccc([N+](=O)[O-])cc1N=C(c1cccc([N+](=O)[O-])c1)N1CCOCC1`, the “hERG current change (%, negative = inhibition) at 10uM” value is -26%.
Under `CC1CN(C(=O)CCC(=O)NC2CCCCC2)c2ccccc2S1` (stereo not drawn) stands -19.5%.
Under `CC(=O)Nc1ccc(/C(C)=N\NC(=O)c2ccc(-c3ccccc3)cc2)cc1` stands -6.21%.
Under `O=C(CN1C(=O)CSC1=O)Nc1ccc2c(c1)OCCO2` stands 3.94%; under `CC(C(=O)NC1CCCCC1)N1CCN(C)CC1.O=C(O)C(=O)O` (stereo not drawn), 5.15%; under `CCN(CC(=O)Nc1cc(Cl)ccc1C)C(=O)c1ccc2c(=O)n3c(nc2c1)CCC3`, 5.23%.
On to `Cc1cccc(C(=O)NCC(=O)OCC(=O)N2CCc3ccccc32)c1`, for which the “hERG current change (%, negative = inhibition) at 10uM” value is -14.4%.
Under `COc1ccc(C(=O)NNC(=O)c2cc3cc(OC)ccc3oc2=O)cc1` stands 1.79%; under `Cc1nc2cc(NCc3nc4ccccc4n3Cc3ccccc3)ccc2n1C`, -82%; under `Cc1cccc(NC(=S)NCc2ccccc2)c1C`, 6.87%.
Under `Cc1noc(C)c1COC(=O)C1COc2ccccc2O1` (stereo not drawn) stands 15.2%; under `CC(Sc1ccccc1)C(=O)N1CCN(S(=O)(=O)c2ccc(Cl)cc2)CC1` (stereo not drawn), -17.8%.
